Test results as given in PubChem BioAssay (NCI).
Several values for one entry are separate records, joined by “and”; a condition that tells them apart may be missing. Equal values may be shown once.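 Assay format: 96-well plates, 48-hour exposure. GI50: concentration for 50% inhibition of growth. TGI is the concentration that stops growth completely.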

test system: NCI-H322M lung; experiment: DTP human tumour cell line panel, 48 h

Q: What does the source list for `O=C(Nc1ccncc1)C(=O)c1cn(S(=O)(=O)c2ccc(Cl)cc2)c2ccccc12`?
A: GI50: 55.6 µM; TGI: > 100 µM

Q: `COc1cc(-c2cc(=O)c3c(O)c(CC=C(C)C)c(O)cc3o2)ccc1O` was tested. Which TGI did it give?
A: Its TGI is over 50 µM.

Q: `COc1ccc(-c2cc(=O)c3cc(OC)ccc3[nH]2)cc1` was tested. Which TGI did it give?
A: The TGI was over 100 µM.

Q: Which GI50 does the source give for `O=C(Nc1ccc(-n2ccc3c(NC(=O)c4ccccc4)ncnc32)cc1)Nc1ccc(Cl)c(Cl)c1` here?
A: Its GI50 is 2.45 µM.

Q: What about the TGI of the same compound?
A: The TGI was 8.46 µM.

Q: For `Oc1ccc(-c2nc3ccccc3s2)cc1CN(Cc1ccccn1)Cc1ccccn1`, which GI50 is on record?
A: Its GI50 is 0.561 µM.

Q: What about the TGI of the same compound?
A: The TGI was 31.3 µM.

Q: With `O=C(c1ccccc1)C1OC1c1ccc([N+](=O)[O-])cc1` (configuration not stated) as the compound, how does the GI50 read?
A: The GI50 was 8.24 µM.

Q: And the TGI?
A: Its TGI is 57.1 µM.

Q: `CC12CCC3(OCCO3)C(OC(=O)c3ccccc3)=C1CCC21OCCO1` (configuration not stated) was tested. Which TGI did it give?
A: The TGI was over 100 µM.

Q: With `O=C1c2ccccc2-c2nnc3c(c21)-c1ccccc1C3` as the compound, how does the TGI read?
A: Its TGI is over 100 µM.

Q: Which TGI does the source give for `CC(=O)OC[C@@H](COC(=O)/C=C/c1ccc(O)cc1)OC1OC(CO)C(O)C(O)C1O` (some centres not stated) here?
A: The TGI was over 100 µM.

Q: For `COc1ccccc1-c1cc(=O)c2cc3c(cc2[nH]1)OCO3`, which TGI is on record?
A: Its TGI is over 100 µM.

Q: `COc1cc(C2c3cc4c(cc3OC(NNS(=O)(=O)c3ccc(C)cc3)C2C)OCO4)cc(OC)c1O` (configuration not stated) was tested. Which TGI did it give?
A: The TGI was over 100 µM.

Q: What does the source list for `Cc1nc(-c2cn3c(n2)-c2ccc(-c4cnn(C(C)(C)C(N)=O)c4)cc2OCC3)n(C(C)C)n1`?
A: GI50: 0.116 µM and 0.117 µM; TGI: 11.4 µM and > 9.65 µM

Q: With `CC(=O)OC(C)(C)/C(C)=C/C(=O)O[C@H]1C(=O)O[C@@H]2C[C@H]3[C@H](C)C(=O)C(O[C@@H]4O[C@H](CO)[C@@H](O)[C@H](O)[C@H]4O)=C[C@]3(C)[C@H]3[C@@H](O)[C@H](O)[C@@]4(C(=O)O)OC[C@]32[C@@H]14` as the compound, how does the GI50 read?
A: Its GI50 is over 100 µM.

Q: What about the TGI of the same compound?
A: Its TGI is over 100 µM.

Q: How did the TGI turn out when `NC(=O)NCCCC(NC(=O)OCCCCCCn1ccc(=O)[nH]c1=O)C(=O)O` (configuration not stated) was run?
A: The TGI was over 100 µM.

Q: Which results are given for `CCN(CC)CCCNCc1cc(-c2ccccc2)nc2ccccc12`?
A: GI50: 30.3 µM; TGI: > 100 µM

Q: What does the source list for `Cc1csc(/C=C/C(=O)c2nnn(-c3ccnc4c(C(F)(F)F)cccc34)c2C)c1`?
A: GI50: 62 µM; TGI: > 100 µM

Q: For `C=C1CCC2C3(C)COC(c4ccccc4)OC3CCC2(C)C1/C=C/C1=CCOC1=O` (configuration not stated), which GI50 is on record?
A: The GI50 was 11.8 µM.

Q: And the TGI?
A: The TGI was 40 µM.

Q: For `COc1cc(-c2cc(O)c(-c3ccc4ccccc4n3)c(=O)[nH]2)cc(OC)c1OC`, which TGI is on record?
A: The TGI was over 100 µM.

Q: How did the GI50 turn out when `CCC/C(=N\NC(=S)N1CC2CCC(CC2)C1)c1ccccn1` was run?
A: The GI50 was 0.0922 µM.

Q: What about the TGI of the same compound?
A: The TGI was 1.81 µM and 1.48 µM.

Q: With `COC(=O)C(Cc1c[nH]c2ccccc12)NC(=O)c1ccc(-c2ccc(Cl)cc2Cl)o1` (configuration not stated) as the compound, how does the TGI read?
A: The TGI was over 100 µM.

Q: Which TGI does the source give for `Nc1nc2c(ncn2C2C=CC(CO)C2)c(=O)[nH]1` (configuration not stated) here?
A: Its TGI is over 100 µM.

Q: `CC(C)O/N=C/c1cc(NC(=S)OC(C)C)ccc1Cl` was tested. Which TGI did it give?
A: Its TGI is over 100 µM.

Q: For `CCOC(=O)C1c2[nH]c3ccccc3c2CCN1C(=O)c1ccc(OC)o1` (configuration not stated), which TGI is on record?
A: The TGI was over 10 µM.

Q: `[N-]=[N+]=NC(c1cn(C2CC(O)C(CO)O2)c(=O)[nH]c1=O)C(Cl)I` (configuration not stated) was tested. Which TGI did it give?
A: The TGI was over 100 µM.

Q: How did the TGI turn out when `COc1ccc(C2SCC(=O)N2NC(=O)c2ccc(NC(C)=O)cc2)c(OC)c1` (configuration not stated) was run?
A: Its TGI is over 100 µM.

Q: How did the TGI turn out when `CC(C)C(=O)Nc1cc(C(F)(F)F)ccc1[N+](=O)[O-]` was run?
A: Its TGI is over 100 µM.

Q: Which TGI does the source give for `Cn1cnc([N+](=O)[O-])c1Sc1nccn1-c1cccc2ccccc12` here?
A: The TGI was 68.9 µM.

Q: How did the TGI turn out when `Oc1ccc(C(c2ccc(O)cc2)c2ccc(O)cc2)cc1` was run?
A: Its TGI is 57 µM.

Q: Which GI50 does the source give for `c1ccc(CN2COc3c(ccc4c3OCN(Cc3ccccc3)C4)C2)cc1` here?
A: Its GI50 is 0.562 µM.

Q: What about the TGI of the same compound?
A: Its TGI is over 100 µM.

Q: How did the TGI turn out when `CCC(=O)Nc1ccc(NC(C#N)c2cccc(Oc3ccccc3)c2)cc1` (configuration not stated) was run?
A: Its TGI is over 100 µM.

Q: For `C#CCSc1cc(Cl)c(C)cc1S(=O)(=O)Nc1nc2ccccc2o1`, which GI50 is on record?
A: Its GI50 is 28.3 µM.

Q: What about the TGI of the same compound?
A: Its TGI is 79.3 µM.

Q: With `Cc1ccc(S(=O)(=O)NC2(C=O)CCCC3CCCCC32)cc1` (configuration not stated) as the compound, how does the TGI read?
A: Its TGI is over 100 µM.

Q: With `Cc1ccc(NC(=O)CC2Sc3ccccc3NC2=O)c(C)c1` (configuration not stated) as the compound, how does the TGI read?
A: The TGI was 67.1 µM.

Q: `COc1c2ccoc2c(OC)c2oc(=O)ccc12` was tested. Which TGI did it give?
A: Its TGI is over 100 µM.

Q: How did the GI50 turn out when `O=C(c1ccccc1)C(CN1CCCCC1)c1ccccc1` (configuration not stated) was run?
A: Its GI50 is 11.4 µM.

Q: And the TGI?
A: Its TGI is 25.1 µM.

Q: Which results are given for `CC(C)=CCC/C(C)=C/CC/C(C)=C/CSc1ccccc1C(=O)O`?
A: GI50: 25.7 µM; TGI: 64.6 µM and 36 µM

Q: How did the TGI turn out when `O=c1[nH]nc(Cc2c[nH]c3ccccc23)o1` was run?
A: The TGI was over 100 µM.

Q: For `N#Cc1c(-c2ccc(Cl)cc2)[nH]c(=O)n(C2OC(CO)C(O)C(O)C2O)c1=O` (configuration not stated), which TGI is on record?
A: The TGI was over 100 µM.

Q: Which GI50 does the source give for `Cc1cc(N2CCOCC2)nc(N[C@@H]2CCC[C@H](Nc3ccnc4cc(Cl)ccc34)C2)n1` here?
A: The GI50 was 2.24 µM.

Q: And the TGI?
A: Its TGI is 6.29 µM.

Q: For `NC(=O)Cc1nc2c(N)ncnc2n1C1OC(CO)C(O)C1O` (configuration not stated), which TGI is on record?
A: Its TGI is over 100 µM.

Q: `CC(C)[C@H](NC(=O)[C@H](N)Cc1ccc(N(CCCl)CCCl)cc1)C(=O)O` was tested. Which TGI did it give?
A: The TGI was over 100 µM.

Q: What does the source list for `CC(=O)c1c(C)[nH]c(-c2nc3ccc(N4CCN(C)CC4)cc3[nH]2)c1-c1ccc(N(C)C)cc1`?
A: GI50: 1.35 µM; TGI: > 66.3 µM

Q: How did the TGI turn out when `CC1(C)OC(=O)N(c2ccccc2)C12C=Cc1cccc([N+](=O)[O-])c1O2` (configuration not stated) was run?
A: Its TGI is over 100 µM.

Q: What does the source list for `C#Cc1c(/C=C/C(=O)OCC)ccc2ccccc12`?
A: GI50: 61.7 µM; TGI: > 100 µM

Q: `Nc1nc2ncc(CNc3ccc(C(=O)NC(CCC(=O)O)C(=O)O)cc3)nc2c(=O)[nH]1` (configuration not stated) was tested. Which TGI did it give?
A: The TGI was over 100 µM.
